Source: ChEMBL document CHEMBL5606460, “ASAP - DENV-2 NS2B-NS3 protease fluorescence single point” (2024)
Hit rate of the full screen: of about 2,000 compounds, about 110 (5.5%) showed an effect of 50% or more. The list shows a part of the results. Non-standard residues stand in square brackets, D forms with d. Residues, ends and D or L forms follow the SMILES beside them. Phg = N[C@H](C(=O)O)c1ccccc1; 4Amb = NCc1ccc(C(=O)O)cc1; Nle = CCCC[C@H](N)C(=O)O

Molecular target: Genome polyprotein (dengue virus type 2) (UniProt P29990)
[1] = Thailand/16681/1984, Concentration 25.0 uM, Number of replicates 1.0

Question: `CCN(Cc1cnn(CC)c1)C(=O)C1CCN(c2ccc(C=O)cc2)CC1` was tested. Which inhibition [1] did it give?
Answer: 12.7%

Question: With `CCOC(=O)c1cc(CNCc2nnc3ccccn23)[nH]n1` as the molecule, how does the inhibition (Thailand/16681/1984, Concentration 49.5 uM, Number of replicates 2.0, Standard deviation 0.017813955579008514 %) read?
Answer: 6.64%

Question: What about the inhibition (Thailand/16681/1984, Concentration 99.01 uM, Number of replicates 2.0, Standard deviation 0.5926797733534107 %) of the same molecule?
Answer: 7.63%

Question: What about the inhibition (Thailand/16681/1984, Concentration 198.0 uM, Number of replicates 2.0, Standard deviation 1.0587355780894199 %) of the same molecule?
Answer: 6.43%

Question: How did the inhibition (Thailand/16681/1984, Concentration 49.95 uM, Number of replicates 2.0, Standard deviation 0.9076569964416333 %) turn out when `Cc1cc(CO)c2cccc(Cc3cccc(C(=O)N[C@@H](CCC(N)=O)C(=O)O)c3)c2n1` was run?
Answer: 26.5%

Question: And the inhibition (Thailand/16681/1984, Concentration 99.9 uM, Number of replicates 2.0, Standard deviation 0.5346782919570826 %)?
Answer: 79%

Question: For `CC(C)Cn1cccc(C(=O)NC2CCNCC2)c1=O`, which inhibition (Thailand/16681/1984, Concentration 49.5 uM, Number of replicates 2.0, Standard deviation 3.422975942243665 %) is on record?
Answer: -4.24%

Question: What about the inhibition (Thailand/16681/1984, Concentration 99.01 uM, Number of replicates 2.0, Standard deviation 3.654834353859189 %) of the same molecule?
Answer: -4.24%

Question: What about the inhibition (Thailand/16681/1984, Concentration 198.0 uM, Number of replicates 2.0, Standard deviation 3.0504034490850622 %) of the same molecule?
Answer: -4.18%

Question: `O=Cc1ccc(N2CCC(C(=O)NC[C@H]3COc4ccccc4O3)CC2)cc1` was tested. Which inhibition [1] did it give?
Answer: 15.5%

Question: With `COc1ccc(-c2ccccc2C(=O)Nc2cnn(C)c2)cn1` as the molecule, how does the inhibition (Thailand/16681/1984, Concentration 49.5 uM, Number of replicates 2.0, Standard deviation 0.48212720676586884 %) read?
Answer: 0.329%

Question: And the inhibition (Thailand/16681/1984, Concentration 99.01 uM, Number of replicates 2.0, Standard deviation 3.4527724997354117 %)?
Answer: 4.65%

Question: And the inhibition (Thailand/16681/1984, Concentration 198.0 uM, Number of replicates 2.0, Standard deviation 0.5868971730541553 %)?
Answer: -0.295%

Question: How did the inhibition [1] turn out when `O=Cc1ccc(N2CCC(C(=O)NCc3ccc4ccccc4n3)CC2)cc1` was run?
Answer: 12.8%

Question: With `CCOc1cc(COc2cccnc2F)nc(N2CCNCC2)n1` as the molecule, how does the inhibition (Thailand/16681/1984, Concentration 49.5 uM, Number of replicates 2.0, Standard deviation 1.805689675732107 %) read?
Answer: -4.84%

Question: What about the inhibition (Thailand/16681/1984, Concentration 99.01 uM, Number of replicates 2.0, Standard deviation 1.6503948919466847 %) of the same molecule?
Answer: -4.71%

Question: What about the inhibition (Thailand/16681/1984, Concentration 198.0 uM, Number of replicates 2.0, Standard deviation 2.8994265256358838 %) of the same molecule?
Answer: -4.55%

Question: What does the source list for `COc1cc(COc2cncc3ccccc23)nc(N2CCNCC2)n1`?
Answer: inhibition (Thailand/16681/1984, Concentration 49.5 uM, Number of replicates 2.0, Standard deviation 1.4253912437729723 %): 5.6%; inhibition (Thailand/16681/1984, Concentration 99.01 uM, Number of replicates 2.0, Standard deviation 4.778700721357949 %): 12.2%; inhibition (Thailand/16681/1984, Concentration 198.0 uM, Number of replicates 2.0, Standard deviation 4.8205002798371135 %): 22.4%

Question: How did the inhibition [1] turn out when `CN(Cc1nc(-c2cccnc2)no1)C(=O)C1CCN(c2ccc(C=O)cc2)CC1` was run?
Answer: 13%

Question: `O=C(c1nc2ccccc2[nH]1)N1CCC[C@H](c2cc3ccccc3[nH]2)C1` was tested. Which inhibition (Thailand/16681/1984, Concentration 49.5 uM, Number of replicates 2.0, Standard deviation 1.1995471874399526 %) did it give?
Answer: 5.26%

Question: What about the inhibition (Thailand/16681/1984, Concentration 99.01 uM, Number of replicates 2.0, Standard deviation 0.2095396322802774 %) of the same molecule?
Answer: 5.89%

Question: What about the inhibition (Thailand/16681/1984, Concentration 198.0 uM, Number of replicates 2.0, Standard deviation 0.1197375107455095 %) of the same molecule?
Answer: 8.94%

Question: For `O=Cc1ccc(N2CCC(C(=O)N3CCc4c(Br)cccc4C3)CC2)cc1`, which inhibition [1] is on record?
Answer: 2.83%

Question: With `Cc1cc(CO)c2cccc(Cc3ccccc3NC(=O)[C@H](N)CCO)c2n1` as the molecule, how does the inhibition (Thailand/16681/1984, Concentration 49.95 uM, Number of replicates 2.0, Standard deviation 1.1804730410904682 %) read?
Answer: -2.49%

Question: And the inhibition (Thailand/16681/1984, Concentration 99.9 uM, Number of replicates 2.0, Standard deviation 1.1029287785847963 %)?
Answer: -0.758%

Question: `CCCC[C@H](NC(C)=O)C(=O)N[C@H](C(=O)NCc1ccc(C(N)=O)cc1)c1ccccc1` (Ac-[Nle]-[Phg]-[4Amb]-NH2) was tested. Which inhibition (Thailand/16681/1984, Concentration 49.5 uM, Number of replicates 2.0, Standard deviation 0.4432432329236086 %) did it give?
Answer: -1.46%

Question: What about the inhibition (Thailand/16681/1984, Concentration 99.01 uM, Number of replicates 2.0, Standard deviation 0.9541533154251546 %) of the same molecule?
Answer: -0.354%

Question: What about the inhibition (Thailand/16681/1984, Concentration 198.0 uM, Number of replicates 2.0, Standard deviation 1.9838414541082603 %) of the same molecule?
Answer: 1.79%

Question: How did the inhibition [1] turn out when `C[C@H](NC(=O)C1CCN(c2ccc(C=O)cc2)CC1)c1ccc(N2CCOCC2)cc1` was run?
Answer: 15.2%

Question: How did the inhibition (Thailand/16681/1984, Concentration 49.5 uM, Number of replicates 2.0, Standard deviation 3.1792600205617827 %) turn out when `CC(C)C[C@@H](NC(=O)OCc1ccccc1)C(=O)Nc1cccc(CN)c1` was run?
Answer: -4.42%

Question: What about the inhibition (Thailand/16681/1984, Concentration 99.01 uM, Number of replicates 2.0, Standard deviation 3.3347078817009965 %) of the same molecule?
Answer: -3.69%

Question: And the inhibition (Thailand/16681/1984, Concentration 198.0 uM, Number of replicates 2.0, Standard deviation 3.065424880922284 %)?
Answer: -2.71%

Question: Which inhibition (Thailand/16681/1984, Concentration 49.5 uM, Number of replicates 2.0, Standard deviation 2.4267153963452164 %) does the source give for `NCc1cccc(NC(=O)c2ccc(OCc3ccccc3)cc2)c1` here?
Answer: -8.23%

Question: What about the inhibition (Thailand/16681/1984, Concentration 99.01 uM, Number of replicates 2.0, Standard deviation 3.232210455045171 %) of the same molecule?
Answer: -7.44%

Question: And the inhibition (Thailand/16681/1984, Concentration 198.0 uM, Number of replicates 2.0, Standard deviation 1.7215868196403763 %)?
Answer: -4.67%

Question: For `CCCN(C)C(=O)c1cc(Cl)ccc1NS(=O)(=O)c1ccc(Oc2ccccc2Cl)cc1`, which inhibition (Thailand/16681/1984, Concentration 49.5 uM, Number of replicates 2.0, Standard deviation 0.9470295707961462 %) is on record?
Answer: 75.9%

Question: What about the inhibition (Thailand/16681/1984, Concentration 99.01 uM, Number of replicates 2.0, Standard deviation 0.4835625940830703 %) of the same molecule?
Answer: 88.8%

Question: What about the inhibition (Thailand/16681/1984, Concentration 198.0 uM, Number of replicates 2.0, Standard deviation 0.2692812727579233 %) of the same molecule?
Answer: 93.4%

Question: How did the inhibition [1] turn out when `O=Cc1ccc(N2CCC(C(=O)Nc3ccccc3Cc3ccccc3)CC2)cc1` was run?
Answer: 15%

Question: Which inhibition (Thailand/16681/1984, Concentration 49.5 uM, Number of replicates 2.0, Standard deviation 13.004898337129504 %) does the source give for `CN(C)c1ccc(C(=O)Nc2cc(Cl)cc(C(=O)NC(C)(C)CO)c2)nc1` here?
Answer: 5.12%

Question: What about the inhibition (Thailand/16681/1984, Concentration 99.01 uM, Number of replicates 2.0, Standard deviation 3.791027680137292 %) of the same molecule?
Answer: -1.14%

Question: What about the inhibition (Thailand/16681/1984, Concentration 198.0 uM, Number of replicates 2.0, Standard deviation 10.980370085636464 %) of the same molecule?
Answer: -0.928%
